Measured values taken from the supplement of paper PMC5919970.
Structures can show the parent of a compound that is named as a salt. Over roughly 2,000 compounds, “fractional viability relative to vehicle” has its median near 0.91; the lowest 2% begin near 0.045. The list shows a part of the results.

Test system: TYKNU
Test: fractional viability relative to vehicle; TYKNU is a high-grade serous ovarian cancer line; higher = less growth inhibition
Details: 72 h
In short: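 TYKNU control cells or lentiCRISPRv2 knockout derivatives were seeded at 500 cells per well into drug-stamped 384-well plates holding a ~2100-compound library at 2 or 10 μM, in duplicate. Cells were grown at 37 °C in 5% CO2 in RPMI 1640 with 10% FBS, and drug treatment lasted 72 h. Viability was read by Cell Titer Glo luminescence. Duplicate treatment wells were averaged and normalised to duplicate control wells from the same plate position.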

[1] = 2uM, genotype: DNM1L knockout (sgDNM1L #1)
[2] = 2uM, genotype: sgCTRLA1 (non-targeting control)
[3] = 10uM, genotype: DNM1L knockout (sgDNM1L #1)
[4] = 10uM, genotype: sgCTRLA1 (non-targeting control)

Row | SMILES | fractional viability [1] | fractional viability [2] | fractional viability [3] | fractional viability [4]
1 | CC(C)N(C[C@H]1O[C@@H](n2cnc3c(N)ncnc32)[C@H](O)[C@@H]1O)[C@H]1C[C@@H](CCc2nc3cc(C(C)(C)C)ccc3[nH]2)C1 | 0.89 | 1.02 | 0.757 | 1.07
2 | COC(c1ccccc1)(c1ccccc1)[C@H](Oc1nc(C)cc(C)n1)C(=O)O [Ambrisentan] | 0.892 | 1.16 | 0.88 | 1.14
3 | O=C(/C=C/c1ccc2ccccc2n1)c1ccncc1 | 0.0494 | 0.0683 | 0.0258 | 0.0162
4 | CC(=O)Nc1ccccc1 [Acetanilide] | 0.896 | 1.08 | 0.878 | 1.14
5 | Cc1cc(C(N)=O)ccc1-n1c(CCC(=O)O)ccc1-c1ccc(-n2ccnc2)cc1 | 0.883 | 0.888 | 0.745 | 0.764
6 | COC(=O)C[C@H](NC(=O)[C@H](C)NC(=O)[C@@H](NC(=O)OCc1ccccc1)C(C)C)C(=O)CF | 0.89 | 1.14 | 0.837 | 1.1
7 | O=C(N/N=C/c1cc(O)c(O)cc1O)c1cc2ccccc2cc1O [Dyngo-4a] | 0.912 | 1.05 | 0.857 | 0.867
8 | CC(C(=O)O)c1ccc2c(c1)Cc1cccnc1O2 (stereo unspecified) [Pranoprofen] | 1.05 | 1.11 | 0.893 | 1.15
9 | Clc1ccc(NN=C(c2ccccc2)c2ccccn2)nc1 | 0.116 | 0.0468 | 0.0355 | 0.0108
10 | C[N+]1(C)[C@@H]2C[C@@H](OC(=O)C(O)(c3cccs3)c3cccs3)C[C@H]1[C@@H]1O[C@@H]12 [Tiotropium Bromide hydrate] | 1.03 | 0.998 | 0.94 | 0.995
11 | O=C[C@H](O)[C@@H](O)[C@H](O)CO [Xylose] | 1 | 1.17 | 0.965 | 1.04
12 | CC(=O)O[C@]1(C(C)=O)CC[C@H]2[C@@H]3C[C@H](C)C4=CC(=O)C=C[C@]4(C)[C@@]3(F)[C@@H](O)C[C@@]21C [Fluorometholone Acetate] | 0.938 | 1.07 | 0.907 | 1
13 | COc1ccc([C@@H]2CC(=O)c3c(O)cc(O[C@@H]4O[C@H](CO[C@@H]5O[C@@H](C)[C@H](O)[C@@H](O)[C@H]5O)[C@@H](O)[C@H](O)[C@H]4O)cc3O2)cc1O [Hesperidin] | 1.06 | 1.03 | 0.99 | 1.01
14 | O=c1cc(N2CCOCC2)oc2c(-c3cccc4c3sc3ccccc34)cccc12 | 0.678 | 0.761 | 0.425 | 0.47
15 | CC(C)(C(=O)O)c1ccc(C(O)CCCN2CCC(C(O)(c3ccccc3)c3ccccc3)CC2)cc1 (stereo unspecified) [Fexofenadine HCl] | 1.06 | 1.19 | 0.89 | 0.99
16 | Cc1cc(NC(=O)Nc2ccc(N(C)C)cc2)c2cc(F)cc(F)c2n1 | 0.844 | 1.04 | 0.801 | 0.614
17 | Cc1onc(-c2c(Cl)cccc2Cl)c1C(=O)N[C@@H]1C(=O)N2[C@@H]1SC(C)(C)[C@@H]2C(=O)O [Dicloxacillin Sodium] | 0.943 | 1.02 | 0.986 | 1.06
18 | Cn1cc(-c2ccc3ncc(Cc4ccc5ncccc5c4)n3n2)cn1 | 1.11 | 1.06 | 0.992 | 1.17
19 | CC1C(=O)OC2C(O)C34C5CC(C(C)(C)C)C36C(OC(=O)C6O)OC4(C(=O)O5)C12O (stereo unspecified) [Ginkgolide B] | 1.06 | 1.12 | 0.987 | 1.18
20 | CN(C)/N=N/c1[nH]cnc1C(N)=O [Dacarbazine] | 1.09 | 1 | 1.07 | 1.2
21 | Cc1oncc1C(=O)Nc1ccc(C(F)(F)F)cc1 [Leflunomide] | 0.985 | 1.08 | 0.599 | 0.768
22 | O=C(O)c1cccnc1Nc1cccc(C(F)(F)F)c1 [Niflumic acid] | 1.09 | 1.18 | 0.803 | 1.14
23 | CC1CC(OC(=O)C(O)c2ccccc2)CC(C)(C)C1 (stereo unspecified) [Cyclandelate] | 1.05 | 1.01 | 0.64 | 0.953
24 | CC(CCc1ccccc1)NCC(O)c1ccc(O)c(C(N)=O)c1 (stereo unspecified) [Labetalol HCl] | 0.755 | 1.15 | 0.743 | 1.02
25 | CCOC(=O)[C@H](CCc1ccccc1)N[C@@H](C)C(=O)N1Cc2ccccc2C[C@H]1C(=O)O [Quinapril HCl] | 0.996 | 1.11 | 0.859 | 1.02
26 | CC1(C)S[C@@H]2[C@H](NC(=O)[C@H](NC(=O)N3CCNC3=O)c3ccccc3)C(=O)N2[C@H]1C(=O)O [Azlocillin sodium salt] | 1.09 | 1.05 | 0.949 | 1.09
27 | O=C1[C@H](Cc2ccc(O)cc2)N2C(=O)CCN(C(=O)NCc3ccccc3)[C@H]2CN1Cc1cccc2ccccc12 | 0.579 | 0.861 | 0.212 | 0.19
28 | CCn1c2ccccc2c2cc(Nc3ccnc(NCCCN4CCOCC4)n3)ccc21 | 0.978 | 0.995 | 0.0528 | 0.0794
29 | CC(C)OC(=O)[C@H](C)N[P@](=O)(OC[C@H]1O[C@@H](n2ccc(=O)[nH]c2=O)[C@](C)(F)[C@@H]1O)Oc1ccccc1 [Sofosbuvir (PSI-7977, GS-7977)] | 1.27 | 1.14 | 0.85 | 1.04
